From the supplement of paper PMC10126150
Values marked as one replicate rest on one cluster of the flow cell; about a third of the high ones do not repeat.

Test system: ATP
Assay: switch fluorescence ratio, 500 uM ATP over buffer (Cy3 cluster intensity, sum of 5 cycles each) (fold (ratio)); higher = stronger signal-on switching upon ATP binding; sequences stand for … in TCGTCGGCAGCGTCAGATGTGTATAAGAGACAGTTTTTTTTTTTTTTTTTTTTTTTTT…TC
Details: aptamer strand: ATP DNA aptamer (quencher-CACCTGGGGGAGTATTGCGGAGGAAGG + anchor), 100 nM annealed; ATP concentration: 500 uM; one replicate
Outline: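 Between each of five buffer/ATP cycles, the flow-cell was stripped with NaOH and re-annealed. Each cycle imaged Cy3-labelled switching-strand clusters, annealed to 100 nM quencher-labelled ATP aptamer on a modified Illumina MiSeq flow-cell, first in selection buffer and then after 15 min with 500 uM ATP at 22 °C. The fluorescence ratio is summed target-cycle over summed buffer-cycle Cy3 intensity per cluster, averaged per switch-domain sequence, with clusters outside 100-1000 RFU excluded.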
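Note: ATP exposure 15 min at 22 °C before imaging.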

Sequence	switch fluorescence ratio
TGCTTGAGAC	1.01
TGCTTGGACA	0.969
TGCTTGTGAG	1.05
TGGAAAAGTC	1
TGGAAAATAG	0.965
TGGAAACTTT	1.14
TGGAACTCGC	1.05
TGGAAGGAGG	0.976
TGGAAGGCCT	0.99
TGGAAGTCCC	1.01
TGGAATCCGT	0.974
TGGACCAGCG	1.03
TGGACCATCT	1.33
TGGACCGAAC	1.56
TGGACGAACT	1.34
TGGACGGCCC	1.06
TGGACGTAAC	1.35
TGGACTCAAC	1.09
TGGAGCCGAG	1.04
TGGAGCGATG	1.49
TGGAGGACTC	0.995
TGGAGTCGAG	1.05
TGGAGTCGAT	0.963
TGGATCAGGT	1.01
TGGATCCCGC	1.08
TGGATCGATT	0.977

Sequence	switch fluorescence ratio
TGGATCGGGA	1.02
TGGATCGTAA	1.03
TGGATCTTGA	0.966
TGGATGAGCC	0.98
TGGATGGTTA	1.01
TGGATGTCTT	1.01
TGGATGTGTT	1
TGGATGTTCG	0.947
TGGATTCGCG	0.995
TGGATTTTAC	0.989
TGGCACATAA	1
TGGCACCCTA	1.03
TGGCACCCTG	1
TGGCACGGTG	1.07
TGGCACTACA	1.05
TGGCAGGCC	0.948
TGGCATTAGT	1.04
TGGCCAGCGT	1.02
TGGCCCCCAC	1.06
TGGCCCCGAA	0.979
TGGCCGAATG	0.95
TGGCCGAGAG	1.01
TGGCGACTGA	0.945
TGGCGATGAA	0.969
TGGCGCCCCT	0.998
TGGCGCGAAT	1.01

Sequence	switch fluorescence ratio
TGGCGCTTAG	0.968
TGGCGGGCGG	1.03
TGGCGTGGGC	1.01
TGGCTACTTT	1.04
TGGCTAGTGT	0.943
TGGCTATTG	0.981
TGGCTATTGA	0.97
TGGCTCAGAC	1
TGGCTCCTAA	0.972
TGGCTCGGGA	1.04
TGGCTCTTTA	0.96
TGGCTTACT	1.12
TGGCTTAGA	0.97
TGGCTTGGCT	0.977
TGGGACATC	0.984
TGGGAGATAA	0.961
TGGGATGTCG	1.06
TGGGATTCAA	0.992
TGGGCAATCG	2.85
TGGGCAGCGA	1.06
TGGGCATGTT	1.01
TGGGCGTTTT	1.03
TGGGCTAAAA	1.01
TGGGCTATAT	0.951
TGGGCTCTTA	0.979
TGGGCTTTCC	1.1

Sequence	switch fluorescence ratio
TGGGGAACAG	0.988
TGGGGACGTA	0.998
TGGGGAGTA	0.965
TGGGGCCGCC	1
TGGGGCCGTC	0.989
TGGGGCTAAA	0.978
TGGGGGAA	0.992
TGGGGGATA	1.03
TGGGGGCATC	1.03
TGGGGGCG	1
TGGGGGCGC	0.988
TGGGGGCTG	1.09
TGGGGTAGAC	1.01
TGGGGTGCTA	1.01
TGGGGTGGGC	1.05
TGGGGTGTAA	1
TGGGGTTGG	0.995
TGGGTAATTA	0.989
TGGGTCAAGG	0.969
TGGGTCCCGT	1.01
TGGGTCCTGA	1.05
TGGGTCTGAA	1.02
TGGGTTACAG	1.03
TGGTAAAGAA	0.988
TGGTAACAGT	0.964
TGGTAGGAGT	0.975

Sequence	switch fluorescence ratio
TGGTATATAC	1.06
TGGTATCCGG	0.968
TGGTATCTGA	0.954
TGGTATGGCA	1.02
TGGTATTCTT	0.962
TGGTCAGTGC	1.04
TGGTCATGAA	0.992
TGGTCCGCTG	1.04
TGGTCCTCGG	1.09
TGGTCGAAAC	1.02
TGGTCGAGGT	1.02
TGGTCGCCG	0.985
TGGTCGGGTG	0.994
TGGTCTTTAT	1.03
TGGTGACGG	1.02
TGGTGAGGA	1.04
TGGTGCACTT	1.02
TGGTGCGTCG	1.08
TGGTGCTTCT	1
TGGTGGACCT	1.15
TGGTGGCCGA	1.02
TGGTGGG	1.03
TGGTGGGCCA	1.01
TGGTGGTTTG	1.05
TGGTGTGCAC	1
TGGTGTGCAG	0.929

Sequence	switch fluorescence ratio
TGGTGTTTGA	0.955
TGGTTATATC	0.957
TGGTTATCGA	1.03
TGGTTCGAGT	1
TGGTTGAGCT	1.03
TGGTTGCATT	1
TGGTTGTATT	3.23
TGGTTTACA	0.988
TGTAACTGGC	1.1
TGTAACTTGA	0.995
TGTAATATGT	0.961
TGTAATCAGT	0.998
TGTAATGCTT	1.01
TGTAATGTGT	0.997
TGTACAAAGG	1.01
TGTACAAGGA	0.993
TGTAGGAATG	0.991
TGTAGGCAGC	1.02
TGTAGGTTGC	0.949
TGTAGTATAA	0.993
TGTAGTCATA	1.01
TGTAGTTCCT	1.03
TGTATATACA	1.05
TGTATATGT	0.993
TGTATCATAT	1.03
TGTATCTTGG	0.988

Sequence	switch fluorescence ratio
TGTATGACAC	0.972
TGTATGGGTA	0.995
TGTATTGAAA	0.961
TGTCACTATA	1.1
TGTCAGCTCT	0.957
TGTCAGGGAT	1.01
TGTCATATAG	1.04
TGTCATTTGA	0.983
TGTCCAAGGG	1
TGTCCGTTTA	1.07
TGTCCTTAAT	1.01
TGTCGAAGCG	0.922
TGTCGACG	0.97
TGTCGCTCTT	0.988
TGTCGCTTCG	1
TGTCGGAGGC	1.04
TGTCGGGGTG	0.973
TGTCGTGGTG	1.01
TGTCTAAAGA	0.962
TGTCTATGCT	1
TGTCTCCGGG	1.02
TGTCTGGTCG	0.991
TGTCTGTTA	1.07
TGTGAAACGA	1.04
TGTGACCCGA	1.04
TGTGACCGTT	1.04

Sequence	switch fluorescence ratio
TGTGACGATA	1.05
TGTGAGTAGT	0.968
TGTGCACCAC	1.03
TGTGCATCTG	1.03
TGTGCTAGGA	0.984
TGTGCTGCA	0.982
TGTGGATTGC	1
TGTGGGATG	1
TGTGGGATGC	0.991
TGTGGGGTGA	0.96
TGTGGGTGT	1.04
TGTGGTCAA	1.01
TGTGGTGCCG	1.01
TGTGTAGACG	0.883
TGTGTATATG	1.01
TGTGTCGATA	1
TGTGTCGG	0.994
TGTGTGTGCT	0.979
TGTGTGTTAA	0.965
